This sample is rich in variants without activity.
B1: TPR 5TU (parent)
chain: GGAUCUUCUCGAUCUAACAAAAAAGACAAAUCUGCCACAAAGCUUGAGAGCAUCUUCGGAUGCAGAGGCGGCAGCCUUCGGUGGCGCGAUAGCGCCAACGUUCUCAACUAUGACACGCAAAACGCGUGCUCCGUUGAAUGGAGUUUAUCAUG

Variants of: B1
Assay: polymerase ribozyme fitness, log enrichment relative to wild type (log ratio); higher = more active; in vitro selection for triplet polymerase activity
Summary of the method: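 In triplicate, a single round of in vitro selection was run on each mutant library, PCR-built and transcribed, covering one subunit of a heterodimeric triplet polymerase ribozyme. Frozen incubation at −7 °C followed annealing with a biotinylated primer, partner subunit and triplets, and extended constructs were then gel-excised, streptavidin-captured and taken through RT-PCR. Fitness is the logarithm of genotype enrichment over wild-type enrichment, from inverse-variance-weighted replicate averages of Illumina-sequenced inputs and outputs. […] only genotypes with ≥10 input reads and ≥1 read per output were kept.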

Compared with A16C G92C U102A G133C A150G, A16C G94A is higher in “polymerase ribozyme fitness (log ratio)” value: at most -4.2 for the first, -1.78 for the second.

A16C G94U A107G C116A C132U A142G and A16C U31G A39C G42C cannot be ordered by “polymerase ribozyme fitness (log ratio)” value: at most -4.2 for the first, at most -4.2 for the second.

A16C U31G A49U U61A C93G A142G G143C U145A U151G and A16C U33A C93A U148C cannot be ordered by “polymerase ribozyme fitness (log ratio)” value: at most -4.2 for the first, at most -4.2 for the second.

A16C U44A C69G C75G A91U C114G G117C and A16C U44A C87A cannot be ordered by “polymerase ribozyme fitness (log ratio)” value: at most -4.2 for the first, at most -4.2 for the second.

A16C U44A G70U G81A C85A A89G C108U A115U A119G U145C U151G and A16C U44G A49U U55A U56A G70U A89U C95U A115U C118G A122U cannot be ordered by “polymerase ribozyme fitness (log ratio)” value: at most -4.2 for the first, at most -4.2 for the second.

Compared with A16C U45G C114U, A16C U56A C103A G124U G143C is lower in “polymerase ribozyme fitness (log ratio)” value: -3.74 for the first, at most -4.2 for the second.

Going from A16C U56A U78A C93U C116G A137C to A16C U56C C87U, the “polymerase ribozyme fitness (log ratio)” value rises from at most -4.2 to -2.13.

A16C U56G C93A U104G and A16C U90C C93G cannot be ordered by “polymerase ribozyme fitness (log ratio)” value: at most -4.2 for the first, at most -4.2 for the second.

A16C U90G and A16G A17C A19G A30G G88A C93G cannot be ordered by “polymerase ribozyme fitness (log ratio)” value: at most -4.2 for the first, at most -4.2 for the second.

A16G A17C A21U A29G U55A C57G A91C C103U U145A and A16G A17G C38G G58A A89G C93G A106G G112C A147G cannot be ordered by “polymerase ribozyme fitness (log ratio)” value: at most -4.2 for the first, at most -4.2 for the second.

A16G A17G C57U A64C A91U C95U C118G G124A G126A G133C and A16G A17U A52C A91U C93U U111G C123U G124U G133A cannot be ordered by “polymerase ribozyme fitness (log ratio)” value: at most -4.2 for the first, at most -4.2 for the second.

A16G A17U G42C G70A and A16G A19C A22G C54A C85U A110U G136A cannot be ordered by “polymerase ribozyme fitness (log ratio)” value: at most -4.2 for the first, at most -4.2 for the second.

A16G A19C G88C and A16G A19G A39U A40C A41U U56A A97C A120G G128A A142U cannot be ordered by “polymerase ribozyme fitness (log ratio)” value: at most -4.2 for the first, at most -4.2 for the second.

A16G A19G A49C C57U G86C A91C and A16G A20G A49C G80U G88A C129A cannot be ordered by “polymerase ribozyme fitness (log ratio)” value: at most -4.2 for the first, at most -4.2 for the second.

Going from A16G A20G A120C to A16G A20G G48C G62U A91U, the “polymerase ribozyme fitness (log ratio)” value falls from -1.84 to at most -4.2.

Compared with A16G A20U U33G C85A G94A A150C, A16G A21C G48C C54A G58U C93U A122G is higher in “polymerase ribozyme fitness (log ratio)” value: at most -4.2 for the first, -3.83 for the second.

A16G A21C U44G A49C U53A C79G C85G G126A and A16G A21G A30U A73U A91G G141A U145C cannot be ordered by “polymerase ribozyme fitness (log ratio)” value: at most -4.2 for the first, at most -4.2 for the second.

Compared with A16G A21U A52C U53A C87A, A16G A22U A47C C95A C96U is higher in “polymerase ribozyme fitness (log ratio)” value: at most -4.2 for the first, -3.89 for the second.

A16G A22U C43G C69A C108G and A16G A23C A41G U61A G83U G86A cannot be ordered by “polymerase ribozyme fitness (log ratio)” value: at most -4.2 for the first, at most -4.2 for the second.

A16G A23C U55G G88A C108A U111C A122C and A16G A23G A41C A52C C131U C132G U151G cannot be ordered by “polymerase ribozyme fitness (log ratio)” value: at most -4.2 for the first, at most -4.2 for the second.

A16G A24U A29U G59A G62A A64G G68C G88A C95U A122U U130C and A16G A24U A52C C85A C95U cannot be ordered by “polymerase ribozyme fitness (log ratio)” value: at most -4.2 for the first, at most -4.2 for the second.

A16G A24U G88A C95U A122U U130C and A16G A26C C32U A47C U53A A91G C96G cannot be ordered by “polymerase ribozyme fitness (log ratio)” value: at most -4.2 for the first, at most -4.2 for the second.

A16G A26U A60U G67C G80U A106C C149G and A16G A26U C35A C51G U61A C87G A120U C129G cannot be ordered by “polymerase ribozyme fitness (log ratio)” value: at most -4.2 for the first, at most -4.2 for the second.

A16G A26U G34U A91U A138U and A16G A26U U31G A52C G94A cannot be ordered by “polymerase ribozyme fitness (log ratio)” value: at most -4.2 for the first, at most -4.2 for the second.

A16G A28C C36A U44A G48C A49C C76G U77C A91U C103G U135C G141C and A16G A28C C38U G46U C75G A89U C96G A97U A138G cannot be ordered by “polymerase ribozyme fitness (log ratio)” value: at most -4.2 for the first, at most -4.2 for the second.

A16G A28G G59A G80A G83C C87U and A16G A28U C87A A107C cannot be ordered by “polymerase ribozyme fitness (log ratio)” value: at most -4.2 for the first, at most -4.2 for the second.

A16G A29U U45A C54G C87G C125G and A16G A30C A52C G84U C85G G100A U101A A122U G126U cannot be ordered by “polymerase ribozyme fitness (log ratio)” value: at most -4.2 for the first, at most -4.2 for the second.

A16G A30U U44A G81A C95U C125G and A16G A37C A52G A120U G143U cannot be ordered by “polymerase ribozyme fitness (log ratio)” value: at most -4.2 for the first, at most -4.2 for the second.

A16G A37C U55G U56A G59A G83A C87U G126A and A16G A37U U44A C96U G152U cannot be ordered by “polymerase ribozyme fitness (log ratio)” value: at most -4.2 for the first, at most -4.2 for the second.

A16G A37U U134G and A16G A40C A119C U127C are within 0.2 log units of each other in “polymerase ribozyme fitness (log ratio)” value: -3.68 for the first, -3.55 for the second.

A16G A40C C51G C76U C93G A97G G126A and A16G A40C C63A A73U G88U A98U C116A U148C cannot be ordered by “polymerase ribozyme fitness (log ratio)” value: at most -4.2 for the first, at most -4.2 for the second.

A16G A40C G42C A52G C54U C96G U109G and A16G A41C A49C G65A cannot be ordered by “polymerase ribozyme fitness (log ratio)” value: at most -4.2 for the first, at most -4.2 for the second.

A16G A47C C79G G81A U101G and A16G A47U G67A G152U cannot be ordered by “polymerase ribozyme fitness (log ratio)” value: at most -4.2 for the first, at most -4.2 for the second.

First: A16G A49U C63U C72U G88C G141C
Second: A16G A49U C131U
The “polymerase ribozyme fitness (log ratio)” value of the first is lower: at most -4.2 for the first, -1.5 for the second.

A16G A52C U53A G92C U109G A137C U139G and A16G A52C U53G G84A G92A A121U G152A cannot be ordered by “polymerase ribozyme fitness (log ratio)” value: at most -4.2 for the first, at most -4.2 for the second.

First: A16G A60G A98U A107U U111C G126U
Second: A16G A97G U144G
The “polymerase ribozyme fitness (log ratio)” value of the first is lower: at most -4.2 for the first, -0.0952 for the second.

First: A16G A98U
Second: A16G A110G
The “polymerase ribozyme fitness (log ratio)” value of the first is higher: -1.65 for the first, -3.77 for the second.

A16G C18A C87G C149U and A16G C18G C27U A66U G83U C108U C129A A138C cannot be ordered by “polymerase ribozyme fitness (log ratio)” value: at most -4.2 for the first, at most -4.2 for the second.

A16G C18U C27U A28U A40C G50C U56A G84C C125A G143A U146G and A16G C27A C69U C72U C87G G133C cannot be ordered by “polymerase ribozyme fitness (log ratio)” value: at most -4.2 for the first, at most -4.2 for the second.

A16G C27A U82G C87A A115G A122C and A16G C27G A47U G62U G83U C129A A150G cannot be ordered by “polymerase ribozyme fitness (log ratio)” value: at most -4.2 for the first, at most -4.2 for the second.

Going from A16G C27U to A16G C27U C35U A49C C93G G136A U148C, the “polymerase ribozyme fitness (log ratio)” value falls from -2 to at most -4.2.

With A16G C27U G42C G58C C75U C95U A138U the “polymerase ribozyme fitness (log ratio)” value was at most -4.2.
